Source: the supplement of paper PMC11383711
The other results are listed elsewhere or left out. Binding of human antibodies (heavy:light variable regions, tested as scFv in one mRNA-display pool) to influenza hemagglutinin, with or without the stem antibody CR9114 bound first. Score = (mean enrichment − median) / interquartile range of that screen; higher = more enriched, 0 = typical non-binder. Active = above the paper's cut-off per screen: stems 28; unblocked H1 Solomon Islands 5, H1 Michigan 3, H3 5, H5 19, H7 2.85, both B 5; blocked 9, 7, H5 10, H7 10, B Phuket 10, B Lee 11.5. Scores are scaled within each screen and are no affinities; replicates correlate at about 0.6 to 0.9, and antibodies rare in the pool are noisier.

B1: antibody 2F04 (protein)
chain 1: EVQLLESGGGLVQPGGSLRLSCAASGFTFSAYSMSWVRQARGKGLEWVSGIGGSGVSIHYADSVKGRFTISRDNSKNTVYLQMNSLRAEDTAVYYCAKSRAWDLKGWFDPWGQGTLVTVSS
chain 2: DIVMTQSPDSLAVSLGERATINCKSSQTVLLNSNNKNSLVWYQQKPGQPPKLLIYWASTRESGVPDRFSGSGSGTDFTLTISSLQVEDVAVYYCQQYYSAPLTFGGGTKVEIK
B2: antibody 2E03 (protein)
chain 1: VQLVESGGGLVQPGRSLRLSCAASGFSFYDYAMSWVRQAPGRGLEWVGFIRSYTYGGTTEYAASVRGRFTISRDDSNNIAYLQMNSLKTEDTAVYYCTNLGSSWLNAGLYYYYDMDVWGQGTTVTVSS
chain 2: DIQMTQSPSSLSASVGDRVTITCRASQSIRRYLNWFQQRPGKAPKLLIYEVSNLPTGVPSRFSGSGSGTDFTLTISGLRPEDFATYFCQQNFRTFGPGTKVDIK
B3: 051-09-5D01 (protein)
chain 1: QVQLVESGGGVVQPGRSLRLSCAASGFAFSNYAMHWVRQAPGKGLESVAVVLYDGNSEYYADSVKGRFTISRDTSKNLVYLQMNSLRPEDTAVYYCVKDSEYADYDPVYWGQGTLVTVSS
chain 2: DIQMTQSPSTLSASVGDRVTITCRASHSVSTWLAWYQQKPGKAPKPLIYKASNLESGVPSRFSGSGSGTEFTLTISSLQPDDFATYYCKQYNRYLWTFGQGTKVEIK
B4: 236-14-IgG-1B03 (protein)
chain 1: QVQLVQSGAEVKKPGASVKVSCKASGYTFADYYIHWVRQAPGQGLEWMGWMNPNTGGTNYAQKFQGRVTMTRDTSIRTAYMELSRLRSDDTAIFYCARDLGDTTTSDYWGQGTLVTVSS
chain 2: SYELTQPPSVSVSPGQTARITCSGDALPQQYASWYQQRPGQAPVLVIYKDTERPSGIPERFSGSTSGTTVTLTISGVQAEDEADYYCQSVDITATFGFGGGTKLTVL
B5: C8-B04 (protein)
chain 1: VQLQESGPGLVKPSETLSLTCTVSGGSIGNYYWNWVRQPPGKGLEWIGYVYNNGGTSYNTSLKSRVTISVDTSKKQFSLRLSSVTAADTAMYYCARLGFGEVFSFKRYYYYGLDVWGRGTTVTVSS
chain 2: DIVMTQSPDTLSLSPGERATLSCRASQSVTSSSLAWYQQKVGQSPRLLIYGASTRATGTPARFSGSGSETDFTLTISSLEPEDFAVYYCQQYGSSVLTFGPGTKVDIK
B6: SFV019-4E01 (protein)
chain 1: QVQLQESGPGLLKPSETLSLTCTVSGGSISKYYWTWIRQPPGKTLEWIGYVHYAFYIGATNYNPSLKSRVTISVDTAKNQVSLRLTSVTAADTAVYYCVRADGDSEGFGYHYGMDVWGRGTTVTVSS
chain 2: DIQMTQSPSSLSASVGDRVTITCRASQGIGNDLAWYQQKLGTAPKRLIYDASSLQSGVPSRFSGSGSGTEFTLTISSLQPEDFATYYCLQHNDYPLTFGQGTKVEIK
B7: 01.ad.01 (protein)
chain 1: EVQLAESGGGLVQPGGSLRLSCAASGFSFHSYAMNWVRQAPGKGLEWVSGTGGSGLSTYYADSVKGRFTISRDNSKNTLYLQMNRLRAEDTAVYYCAKSPSWDKNFYDSGSYYFYFDYWGQGNLVTVSS
chain 2: EIVLTQSPVSLSLSPGERAALSCRASQSLSSRFLAWYQQKPGQAPRLLIHGASSRATGIPDRFSGSGSGTDFTLTISRLEPEDFAVYYCQQYGSAPLTFGGGTKVEMK
B8: FluA-152 (protein)
chain 1: QVTLRESGPALVKPTQTLTLTCTFSGFSLSTSGMCVSWIRQPPGKALEWLARIDWGDDKYYSTSLKTRLTISKDTSKNQVVLRMINMDPVDTATYYCARTHAERLYTSDYYYYAMDVWGQGTTVTVSS
chain 2: DIQMTQSPSSLSASVGDRVTITCRASQSISNYLNWYQQKPGKAPKLLIYVASNLQTGVPSRFSGSGSGTDFSLTISSLQPEDFATYYCQQTYSSLTFGQGTRLAIK
B9: AG10-A05 (protein)
chain 1: VQLQESGPRLIKPSETLSLTCTVSGGSISSSPYFWGWIRQPPGKGLEWIGSSYYSGNTDYNPSLKSRVTISVDTSKNQFSLKLRSVTAADTAVYYCARRTHDYGDYYYWFDPWGQGTLVTVSS
chain 2: DIQMTQSPSSLSASVGDRVTITCRTSRTIRNYLNWYQQKPGKAPNLLIYTASTLQSGVPSRFNGSGSGTDFTLTISSLQPEDFATYYCQQSYYFGPGTKVDIK
B10: antibody 2F01 (protein)
chain 1: ESGGGLIQPGGSLRLSCVASGFTINSFAMSWVRQAPGKGLQWVSSVNEQATYYAESVEGRFTISRDRSRNTLFLQMNYLRVEDTATYYCANDVDGDAGTWFESWGQGALVTVSS
chain 2: EIVMTQSPDTLSVSPGERATLFCRASQNVKSNLTWYQQRPGQPPRLLIFGASTRATGVPARFSGSGSGTEFTLSISSLQSEDSAIYSCQQYNDWPPTFGQGTKVEIK
B11: antibody 3G02 (protein)
chain 1: VQLVESGGGVVQPGGSLRLSCAASSFTFRNYAMFWVRQAPGKGLEWLALIRNDGSEQNYAEVVKGRFTISRDNSKKTLYLQMNSLRPEDTAVYYCARNHLYAAYNSYYYGMDDWGQGTTVTVSS
chain 2: DIQMTQSPSSLSTSVGDRVTITCQASQGIRNFLNWYQQKPGKAPKLLIYDASILETGIPSRFSGSGSGTDFTFTINSLQPEDIAIYYCQQYVNFPLTFGGGTKVEIK
B12: K77-2G04 (protein)
chain 1: EVQLVQSGGGVVRPGGSLRLSCAGSGFAFDEYGMTWVRQVPGKGLEWVSNINWHGNSAAYADSVKGRFTISRDNARNSLYLQMNRLRAEDTALYYCARNRQPDTSMDYFYYFGMNVWGQGTTVTVSS
chain 2: DIQMTQSPSSLSASVGDRVTISCQASQDINKYLSWYQQKPGKAPKLLIYDASNLETGVPSRFSGSGSGTEFTLTISSLQPADIATYYCQQYDNVPVTFGRGTNLEIK
B13: 014-10-3A02 (protein)
chain 1: VQLVQSGAEVKKPGASVKVSCKASGYTFTGYYIQWVRQAPGQGLEWMGWINPNSGGTNYAQSFQGRVTMTRDTSVNTAYMELNRLKSDDTAIYYCARDDYPDYEVYWGQGTLVTVSS
chain 2: EIVLTQSPATLSLSPGERATLSCRASQSVSSYLDWYQQKPGQAPRLLIYDASTRATGIPSKFSGGGSGTDFTLTISSLEPEDFAVYYCQQRGNWLWTFGQGTKVEIK
B14: W85-1A11 (protein)
chain 1: EVQLLESGGGLVQPGGSLRLSCTASGFTFSNYAMTWVRQPPGKGLEWVSSISGSGGRTYYADSVKGRFTISRDNSKNTLYLQMNSLRAEDTAVFYCAAASPLLRWYCLDYWGQGTLVPVSS
chain 2: NFMLTQPHSVSESPGKTVTISCTGSSGSITSNYVQWYQQRPGSAPTTVIYEDNQRPSGVPDRFSGSIDSSSNSASLTISGLKTEDEADYYCQSYDSRNYVVFGGGT
B15: 16.ND.89 (protein)
chain 1: QVQLVQSGAEVKEPGASVKVSCKVFGYTLTDLSMHWVRQAPGKGLEWMGGFDPEDDETIYAQNLQGRVTMTEDTSTDTAYMELSSLRSEDTAVYYCTTRDYYDSSGYLVDYWGQGTLVTVSS
chain 2: DIVMTQSPDSLAVSLGERATINCKSSQSVLHWSNNKNYLAWYQQRPGQPPKLLISWASTRESGVPDRFSGSGCGTDFTLTISNLQPEDVAVYYCQQYYNTPPFTFGPGTKVDIK
B16: antibody 4D02 (protein)
chain 1: VQLVESGGGLIQPGGSLRLSCAASGFTVSSNYVSWVRQAPGRGLEWVSIIYSDGRTYYADSVKGRFNISRDNSKNTLYLQMNSLRAEDTAVYYCARDFYGDYYNNGMDVWGQGTTVTVSS
chain 2: DIQMTQSPSSLSASVGDRVTITCRAGQSISNYLNWYQQKPGRAPKLLISGASSLQAGVPSRFSGSGSGTDFTLTISSLQREDFATYYCQQSYSIPQTFGQGTKVEIK
B17: AG4-C01 (protein)
chain 1: VQLQESGPGLVKPSETLSLTCTVSGGSVTSGNYHWSWIRQSPGKGLEWIAYKYYSGNTKYNPSLKSRVTISLDTSKNQISLKMTSVTAEDTAVYYCARVVLYGSGSYMWFDPWGQGTLVTVSS
chain 2: DIQMTQSPSSLSASVGDRVTITCRASQNIITYLHWYQQKPGKAPKLLIYATSSLQSGVPSRFSGSGSGTDFTLTISSLQPEDFATYYCQQSFSTLLTFGGGTKVEIK
B18: AG9-4B03 (protein)
chain 1: QVQLQESGPGLVKPSETLSLTCADPHSLISSRYYWGWIRQPPGKGLEWIGTIFQSGDTFYNPSLESRVTLFVDTSKNQTSLQLTSVTAADAAVYYCARGLAATGDYYWYALDVWGQGTTVTVSS
chain 2: EIVLTQSPGTLSLSPGERATLSCRASHSISSGYLAWYQHKPGQAPRLVISDTSDRATGIPDRFSGSGSGTDFTLTFSRLEPEDSAVYYCHQYGILPWTFGQGTKVEIK
B19: 31.a.55 (protein)
chain 1: EVQLLESGGGLVKPGGSLRLSCEASEFTFSSHAMSWVRQAPGKGLEWVSAISGNGGSTYYADSVKGRFTISRDNSKNTLYLQMNSLRAEDTALYYCTKDRSPPVFDLMPGYYSSFYYMDVWGKGTTVTVSS
chain 2: EIVMTQSPATLSVSPGERATLSCRASQSVRGNLAWYQQKPGQAPRLLIYGASTRATDIPARFSGSGSGTEFTLTISSLQSEDFAVYYCQQYNHWLRTFGQGTKLEIK

These binders were tested against H1 HA stem construct (mini-HA #4900) (assay: mRNA display binding score; higher = more enriched on the antigen). Conditions: antigen blocked with: nothing.
Procedure: (§1)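 A pool of natively paired antibodies, displayed as scFv on mRNA, was selected once on antigen-coated beads and sequenced before and after; two replicates.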

Binder | mRNA display binding score
B1 | inactive: 0.527
B2 | inactive: 0.317
B3 | inactive: -0.703
B4 | inactive: 0.51
B5 | inactive: 1.15
B6 | inactive: 0.169
B7 | inactive: 0.226
B8 | inactive: 1.05
B9 | inactive: 1.07
B10 | inactive: 0.133
B11 | inactive: 1.05
B12 | inactive: 0.842
B13 | inactive: -0.129
B14 | inactive: -0.0556
B15 | inactive: -0.629
B16 | inactive: -0.623
B17 | inactive: 0.489
B18 | inactive: -0.747
B19 | active: 501

What follows are binders tested against H3 HA stem construct (H3ssF) in the same assay as above. Conditions: antigen blocked with: nothing.
Procedure: as §1

Binder | mRNA display binding score
B1 | active: 47.9
B2 | inactive: 0.261
B3 | inactive: -0.43
B4 | inactive: 1.42
B5 | inactive: 0.418
B6 | inactive: -0.24
B7 | active: 329
B8 | inactive: 0.32
B9 | inactive: 0.682
B10 | inactive: -0.263
B11 | inactive: 0.338
B12 | inactive: 3.34
B13 | inactive: -0.3
B14 | inactive: -0.478
B15 | inactive: -0.402
B16 | inactive: -0.638
B17 | inactive: -0.19
B18 | inactive: -0.459
B19 | active: 207
